The whole screen tested about 48,000 compounds, of which about 450 (0.94%) were called active. Inconclusive results, whose numbers are uncertain, are shown with a selection of clear calls. Calls follow the shape of the dose curve; as a rule, active = well fitted inhibition curve with a large enough effect; inconclusive = small, poorly fitted or top-dose-only effect; inactive = no such curve, though single readings can be large or run the other way. A potency beside an inconclusive call is a rough fit, not a confirmed value.
test: Primary qHTS for Identification of Small Molecule Inhibitors of Huntingtin Promoter Activity; conditions: HEK293 HTT promoter firefly luciferase reporter (activity 0% = vehicle and -100% = no light), 24 h; series mostly up to 57.5 µM; also: nearly all actives have a fitted effect of over 50% in size
From the text: Assay Provider: Russell L. Margolis M.D.
Department Neurology, Johns Hopkins University School of Medicine, Baltimore, MD
Huntington's Disease (HD) is a neurodegenerative disorder caused by a CAG repeat expansion in exon 1 of huntingtin (HTT). While there are currently no disease-modifying treatments for HD, recent efforts have focused on development of nucleotide-based therapeutics to lower HTT expression. As an alternative to siRNA or oligonucleotide methods, we hypothesized that suppression of HTT expression might be accomplished by small molecules that either (1) directly decrease HTT expression by suppressing HTT promoter activity or (2) indirectly decrease HTT expression by increasing the promoter activity of HTT-AS, the gene antisense to HTT that appears to inhibit expression of HTT.
We developed and employed a high throughput screen for modifiers of HTT and HTT-AS promoter activity using luminescent reporter HEK293 cells; of the 52,041 compounds tested, we identified 898 replicable hits. We used a rigorous stepwise approach to assess compound toxicity and the capacity of the compounds to specifically lower huntingtin protein in 5 different cell lines, including HEK293 cells, HD lymphoblastoid cells, mouse primary neurons, HD iPSCs differentiated into cortical-like neurons, and HD hESCs. We found no compounds which were able to lower huntingtin without lowering cell viability in all assays, though the potential efficacy of a few compounds at non-toxic doses could not be excluded.
SEQUENCE No. (1, 2, 3, etc.); […] (e.g., Cells, Incubation, Reagent, etc.); VALUE and DESCRIPTION.
1; Reagent; 4 uL; 2,500 Hek293 luciferase reporter cells per wells
3; Compound; 23 nL; Control inhibitor / compound library
5; Reagent; 2.5 uL; Firefly Luc reagent; Dual-Glo Luciferase Reporter Assay System (Promega)
6; Time; 10 min; room temperature incubation
7; Detection; Luminescence; FLuc
NOTES (numbers refer to sequence above)
1; High-throughput screening, measuring luminescence from a Hek293 luciferase reporter, was performed in 1,536 well white-walled tissue-culture treated plates. 2,500 cells were plated in 4 µL of Opti-MEM per well using a Multidrop Combi Reagent Dispenser (ThermoFisher).
2; Assay plates were cultured for 24 hours.
3; Control inhibitor (PTC124; final concentration of 50 uM) and compound library (at final concentrations of 460 nM - 57.5 uM) were added to the assay plate using the Kalypsis Pintool Robotic System equipped with 1536 pinheads.
4; Cells were then incubated for 24 hours at 37 degrees C prior to luminescence measurements.
5; In all cases, luminescence was measured using the Dual-Glo Luciferase Reporter Assay System (Promega) following the manufacturer's instructions.
6; Room temperature incubation.
7; Luminescence signal was obtained using the PerkinElmer ViewLux plate reader. Results were normalized to vehicle control (0% activity) and zero RLU (-100% activity).
Potency is read from the fitted curve at half-maximal effect; tags tell the direction and shape of the fitted curve.

Potency, inconclusive:
CC(=O)c1cc(-c2ccccc2)n(CC(=O)Nc2ccc(C)cc2C)c1C 8.91 µM [inhibitor, full curve, poor fit]
Nc1nonc1-c1nc2ccccc2n1CC(=O)Nc1ccc(F)cc1 22.4 µM [inhibitor, partial curve, poor fit]
Cc1ccc(-c2nc(CS(=O)CC(=O)O)c(C)o2)cc1 (configuration not stated) 39.8 µM [inhibitor, single point]
Cc1cccc(N2CCN(C(=O)c3ccc4c(c3)CCN4S(=O)(=O)c3ccccc3)CC2)c1C 14.1 µM [inhibitor, partial curve, poor fit]
CCCc1noc(-c2ccc(NCc3ccccc3OC)c([N+](=O)[O-])c2)n1 28.2 µM [inhibitor, partial curve, poor fit]
CC(C)c1ccc(NC(=O)CSC2=Nc3ccccc3C3=NC(CC(=O)NCCc4ccccc4)C(=O)N23)cc1 (configuration not stated) 31.6 µM [inhibitor, partial curve, poor fit]
Cc1[nH]c2ccccc2c1SCCNC(=O)c1ccc(F)cc1 31.6 µM [inhibitor, single point]
Cc1cc(-c2ccc(C)c(S(=O)(=O)NCCc3ccccc3)c2)on1 28.2 µM [inhibitor, single point]
COc1ccc(N(C(=O)c2cc(OC)c(OC)c(OC)c2)S(=O)(=O)c2ccc(C)cc2)cc1 31.6 µM [inhibitor, partial curve, poor fit]
Cc1ccccc1C(=O)Nc1ccc2nc(SCC(=O)N(C)c3ccccc3)sc2c1 39.8 µM [inhibitor, single point]
CC(C)c1ccc(Cc2cnc(NC(=O)c3ccc4c(c3)CC(c3ccccc3)OC4=O)s2)cc1 (configuration not stated) 2.51 µM [inhibitor, partial curve, poor fit]
Cc1ccnc(NC(c2cc(C)ccc2O)c2ccc3cccnc3c2O)c1 (configuration not stated) 39.8 µM [inhibitor, single point]
Cc1ccc(CNC(=O)C2CCN(S(=O)(=O)c3c(C)noc3/C=C/c3ccccc3F)CC2)o1 39.8 µM [inhibitor, single point]
COc1ccccc1N1CCN(Cc2cc(COC(C)C)c3cccnc3c2O)CC1 14.1 µM [inhibitor, partial curve, poor fit]
CCN(CC)c1ccc(C2C(C(N)=O)=C(C)Nc3nc(SCc4ccccc4)nn32)cc1 (configuration not stated) 14.1 µM [inhibitor, partial curve, poor fit]
COc1ccc(/C=C\c2onc(C)c2S(=O)(=O)N2CCC(C(=O)Nc3ccc(C)c(F)c3)CC2)cc1 17.8 µM [inhibitor, partial curve]
Cc1ccc(-c2onc(C)c2C)cc1S(=O)(=O)NC1CCC(C)CC1 (configuration not stated) 35.5 µM [inhibitor, single point]
Cc1cccc(-c2nc(SCC(=O)Nc3ccc4c(c3)OCCO4)c(-c3ccccc3)[nH]2)c1 39.8 µM [inhibitor, single point]
Cc1nnc(N2CCN(c3ccccc3F)CC2)c2c1nnn2Cc1ccccc1 25.1 µM [inhibitor, partial curve, poor fit]
O=C(NC1CCNCC1)c1[nH]ncc1NC(=O)c1c(Cl)cccc1Cl 12.2 µM [inhibitor, full curve]
CCCn1cc(S(=O)(=O)c2ccc(CC)cc2)c(=O)c2ccccc21 35.5 µM [inhibitor, single point]
Cc1ccc(N(C)C(=O)C2CCCN(c3ncnc4c3nc3n4CCCCC3)C2)cc1C (configuration not stated) 35.5 µM [inhibitor, partial curve, poor fit]
COc1ccc2c(c1OC)C(=O)OC2[C@H]1c2c(cc3c(c2OC)OCO3)CCN1C (some centres not stated) 1.72 µM [inhibitor, full curve]
CC1=C(C(=O)OC2CCCC2)C(c2ccccc2Cl)CC(=O)N1 (configuration not stated) 22.4 µM [inhibitor, partial curve, poor fit]
CC(C)(C)OC(=O)N1CCC(c2c(C(=O)NC3CCCCC3)cnn2-c2cccc(Cl)c2)CC1 31.6 µM [inhibitor, single point]
COc1ccc(N2CCN(C(=O)c3oc4ccccc4c3NC(=O)c3ccccc3OC)CC2)cc1 39.8 µM [inhibitor, single point]
O=C(Cn1c(=O)oc2cc(S(=O)(=O)NC3CCCC3)ccc21)Nc1ccc(F)c(F)c1 39.8 µM [inhibitor, single point]
Cc1cccc(-c2nc(SCC(=O)Nc3ccc4c(c3)OCO4)c(-c3ccccc3)[nH]2)c1 31.6 µM [inhibitor, partial curve]
CC(=O)c1ccc(N2CCN(S(=O)(=O)c3ccc(-c4cc(C)no4)s3)CC2)cc1 8.91 µM [inhibitor, full curve, poor fit]
Cc1cccc(NC(=O)CCn2nc(-c3ccccc3)c3ccccc3c2=O)c1 28.2 µM [inhibitor, single point]
COc1ccccc1CNC(=O)CCCCn1c(=O)c2ccccc2n(CC(=O)Nc2cc(Cl)ccc2C)c1=O 39.8 µM [inhibitor, single point]

Potency, active:
COc1ccc(S(=O)(=O)N(C(=O)c2ccncc2)c2ccc3oc(C)c(C(C)=O)c3c2)cc1 14.1 µM

Potency, inactive:
COC(=O)c1cc(Cl)ccc1NS(=O)(=O)C(F)(F)F
COc1ccc2c(c1)Cc1sc(NC(=O)c3cccc(Cl)c3)nc1-2
CC(=O)Nc1nonc1-c1nnc(SCc2cccc(Br)c2)n1C
Cc1ccc(Cl)cc1N1CCN(C(=O)C2CCN(Cc3nc(-c4ccc(Cl)cc4)oc3C)CC2)CC1
COC(=O)c1ccc(NC(=O)C2CCN(C(=O)c3ccc(F)cc3)CC2)cc1

— PubChem BioAssay AID1508623 (National Center for Advancing Translational Sciences (NCATS), 2021)
